# Laboratory results: PubChem BioAssay AID686970 (National Center for Advancing Translational Sciences (NCATS), 2013)
# Where “and” joins values, the source holds several entries; their conditions need not be identical. Identical values can stand only once. About 6,000 (1.7%) of roughly 360,000 compounds were called active. The inconclusive results got no clear call from the source; some entries with a clear call stand among them for comparison. The call rests on the fitted dose curve; in most records, active means well fitted cell-killing curve with a large enough effect; inconclusive means small, poorly fitted or top-dose-only effect, or effect the other way; inactive means flat fitted curve, though single readings scatter. No potency is given beside an inconclusive call; the fits are too rough.
# Assay: qHTS for induction of synthetic lethality in tumor cells producing 2HG: qHTS for the HT-1080-NT fibrosarcoma cell line;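 further: NT is the 2HG producing partner of a matched IDH1 knockdown line; nearly all actives have a fitted effect of over 55% in size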;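 on activity, negative = less viability: 0% = DMSO-treated cells and -100% = media-only wells without cells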
# Conditions: HT-1080-NT fibrosarcoma viability, CellTiter-Glo ATP luminescence, 48 h; activity, negative = less viability: at 46.1 µM (top of the series)
# Summary of the method: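 HT-1080-NT; 750 cells/well; 5% FBS RPMI; 48 h compound, 37 degrees C; CellTiter-Glo luminescence; curve fitting and curve-class assignment.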
# Potency means the concentration at half of the fitted maximal effect; tags describe the fitted curve by direction and shape.
SMILES,Potency,"activity, negative = less viability"
CN(C)CC/C=C1\c2ccccc2Sc2ccc(Cl)cc21,active: 20.6 µM,
CC1CCCCN1Cc1c[nH]c2ccccc12 (centres undefined),inactive,
O=C1Nc2cc(C(=O)N3CCC4(CC3)OCCO4)ccc2S/C1=C\c1ccccc1,"inconclusive [cytotoxic, single point]",
Cc1cccc(CCNCc2cc3cccc(C)c3[nH]c2=O)c1,inactive,
N#Cc1cc2c(nc1SCC(=O)Nc1ccc(Cl)cc1)C1CCN2CC1,"inconclusive [cytotoxic, single point]",
Nc1ccc2nc3c(c(Cl)c2c1)CCCC3,"inconclusive [cytotoxic, single point]",
COc1ccc(OC(=O)N2C/C(=C/c3ccccc3)C(=O)/C(=C\c3ccccc3)C2)cc1,active: 10.3 µM,
O=C(Nc1ccc(Oc2ccc(Cl)cc2)c(Cl)c1)c1cc(I)cc(I)c1O,"inconclusive [cytotoxic, single point]",
C=CC1CN2CCC1CC2C(OC(C)=O)c1ccnc2ccc(OC)cc12 (centres undefined),inactive,
O=C1NC(=O)N(c2ccc(Cl)cc2)C(=O)/C1=C/c1coc2ccc(O)cc2c1=O,inactive,
Cc1ccc(/C=C2\C(=O)NC(=S)N(c3ccc(F)cc3)C2=O)s1,"inconclusive [cytotoxic, single point]",
O=C(c1ccc(F)cc1)C(Cc1ccccc1)N1CCCCC1 (centres undefined),inactive,
CCC1C(c2cc(OC)c(OC)c(OC)c2)c2cc3c(cc2OC1N1CCCC1)OCO3 (centres undefined),"inconclusive [cytotoxic, full curve]",
Cc1cccc(C)c1-n1nnnc1C(c1ccnc2ccccc12)N1CCC2(CC1)C(=O)NCN2c1ccccc1 (centres undefined),"inconclusive [cytotoxic, single point]",
CNC(=O)O/N=C(\N)Cc1csc2ccc(Cl)cc12,"inconclusive [cytotoxic, single point]",
COc1ccc(OC)c([C@@H](O)[C@H](C)NC(C)(C)C)c1,,inconclusive: 44.5%
CC1=CC(=C2C(=O)NC(=S)NC2=O)C=C(C(F)(F)F)N1Cc1ccccc1,active: 1.84 µM,
CC[C@@]1(O)C(=O)OCc2c1cc1n(c2=O)Cc2cc3c(N)cccc3nc2-1,active: 2.06 µM,
c1cc2c(cc1N1CCCCC1)CNCc1cnnn1-2,,inconclusive: 31.1%
CCc1cc2c(cc1-c1csc(C/C(N)=N/O)n1)C(C)(C)CCC2(C)C,"inconclusive [cytotoxic, single point]",
CNC(=O)c1cccn(Cc2cc(C(F)(F)F)cc(C(F)(F)F)c2)c1=O,"inconclusive [cytotoxic, single point]",
Cc1cnc(C)c(Nc2nc(C(N)Cc3ccc(C(F)(F)F)cc3)cs2)n1 (centres undefined),"inconclusive [cytotoxic, single point]",
O=C(c1ccc(Cl)cc1)C1CCCN(Cc2cccc3ncccc23)C1 (centres undefined),"inconclusive [cytotoxic, single point]",

SMILES,Potency,"activity, negative = less viability"
O=C(CNC(=O)c1ccc(Cl)cc1)Nc1ccc(Br)cc1C(=O)c1ccccc1,"inconclusive [cytotoxic, single point]",
Cc1cc(N(C)C)ccc1N=Nc1ccc(N)cc1,"inconclusive [cytotoxic, partial curve]",
O=C1CCN(C(=O)CCCn2c(=O)oc3ccccc32)CC1,inactive,
BrCC(Br)C1CCC(Br)C(Br)C1 (centres undefined),inactive,
O=c1c2ccccc2nc(-c2ccc(Cl)cc2Cl)n1-c1nccs1,"inconclusive [cytotoxic, single point]",
CCCN1CCc2cccc3c2[C@H]1Cc1ccc(O)c(O)c1-3,active: 3.26 µM,
CC[n+]1c(/C=C/C=C/c2ccc(N(C)C)cc2)sc2ccccc21,active: 5.8 µM,
O=c1[nH]c2ccccc2n1C1CCN(Cc2ccc(-c3[nH]c4cc5ncnc5cc4nc3-c3ccccc3)cc2)CC1,"inconclusive [cytotoxic, partial curve]",
CSc1ccccc1C(=O)C1CCCN(Cc2cccc(C)n2)C1 (centres undefined),"inconclusive [cytotoxic, single point]",
Fc1ccc(CCNCc2ccc(Cl)c(Cl)c2)cc1,"inconclusive [cytotoxic, single point]",
O=C(NCC1=C(c2cccc3ccccc23)C[C@@H]2CC[C@H]1N2Cc1ccco1)c1cccnc1,inactive,
Cc1cccc2nc(-c3ccccc3)c(-c3ccc(CN4CCC(n5c(=O)[nH]c6ccccc65)CC4)cc3)nc12,"inconclusive [cytotoxic, single point]",
O=c1[nH]c2ccccc2n1C1CCN(C(c2cccc3ccccc23)c2nnnn2-c2ccc3c(c2)OCCO3)CC1 (centres undefined),"inconclusive [cytotoxic, partial curve]",
CCOC(=O)c1c(C)n(Cc2ccc(F)cc2)c2ccc(O)cc12,inactive,
CCN(CC)c1ccc(N=Cc2c(O)n(-c3cc(OC)ccc3OC)c(=O)[nH]c2=O)cc1,,inconclusive: 10.7%
O=C(NCCN1CCC2(CC1)C(=O)NCN2c1cccc(F)c1)c1ccc2ccccc2c1,active: 14.6 µM,
COc1cc(C)c(CN2CC=C(c3ccc(F)cc3)CC2)cc1C,"inconclusive [cytotoxic, single point]",
Cc1oc(-c2ccc(F)cc2F)nc1CN1C[C@@H]2C[C@@H](C1)c1cccc(=O)n1C2,inactive,
O=C1/C(=C/c2ccccc2)C[C@@]2(O)[C@H]3Cc4ccc(O)c5c4[C@@]2(CCN3CC2CC2)C1O5 (some centres undefined),active: 1.64 µM,
O=S(=O)(c1cc(Cl)cc(Cl)c1)N1Cc2cc(-c3cccc(F)c3)ccc2-n2nncc2C1,"inconclusive [rising, partial curve]",
CCCS(=O)(=O)NC(=O)C1(C)CCCN(C(=O)c2ccccc2OC)C1 (centres undefined),"inconclusive [rising, single point]",
CCCOc1ccccc1OCC(=O)N1CCN(CC(=O)N2CCOCC2)CC1,inactive,
COc1cccc(Nc2nc(C(N)Cc3ccc(F)cc3)cs2)n1 (centres undefined),active: 23.1 µM,

SMILES,Potency,"activity, negative = less viability"
COC(=O)[C@]12OC[C@]34C([C@@H](O)[C@@H]1O)[C@]1(C)CC(=O)C(O)=C(C)[C@@H]1C[C@H]3OC(=O)[C@H](O)[C@@H]24 (some centres undefined),"inconclusive [cytotoxic, full curve]",
O=C1NCN(c2ccccc2)C12CCN(C(c1ccnc3ccccc13)c1nnnn1Cc1ccccc1)CC2 (centres undefined),"inconclusive [cytotoxic, single point]",
O=C(CCN1CCCCC1)Nc1ccc(Br)cc1C(=O)c1ccccc1,"inconclusive [cytotoxic, single point]",
CCCCC1(CCCC)C(=O)NC(=Nc2cccc(C)c2)NC1=O,"inconclusive [cytotoxic, single point]",
CCOC(=O)C1C2NC(=O)N(Cc3ccccc3)C1(C)Oc1c(OC)cccc12 (centres undefined),inactive,
CC[C@H]1CN2CCC1C[C@H]2[C@H](O)c1ccnc2ccc(OC)cc12 (some centres undefined),"inconclusive [cytotoxic, single point]",
CCC(C)(O)C(=O)OC1C(=O)OC2CC3C(C)=CC(=O)C(O)C3(C)C3C4(O)OCC23C1C(C)C4O (centres undefined),"inconclusive [cytotoxic, full curve]",
CCN(CC)c1ccc(/C=C/[N+](=O)[O-])cc1,"inconclusive [cytotoxic, full curve, poor fit]",
O=c1c2ccccc2nc(/C=C/c2ccccc2)n1-c1ccc(O)cc1,"inconclusive [cytotoxic, single point]",
O=C(O)CCn1cc(C=C2C(=O)NC(=S)NC2=O)c(-c2cc3ccccc3oc2=O)n1,"inconclusive [rising, single point]",
COc1ccc(C2=CC(c3ccc4c(c3)OCO4)c3c(c4ccccc4oc3=O)O2)cc1OC (centres undefined),"inconclusive [cytotoxic, full curve]",
COc1cccc(C2C([N+](=O)[O-])=C(N)Oc3c2c(=O)oc2ccccc32)c1 (centres undefined),inactive,
Fc1ccc(C2=CCN(C(c3cccs3)c3nnnn3CCc3ccccc3)CC2)cc1 (centres undefined),inactive,
CCCCCC(=O)N[C@@H](c1ccccc1)[C@@H](O)C(=O)O[C@H]1C[C@@]2(O)[C@@H](OC(=O)c3ccccc3)C3[C@](C)(C(=O)[C@H](O)C(=C1C)C2(C)C)[C@@H](OC1OCC(O)C(O)C1O)C[C@H]1OC[C@@]31OC(C)=O (some centres undefined),active: 2.59 µM,
COc1cccc2c1N=C1CCCC3CN(C(C)=O)CCC123 (centres undefined),inactive,
Cc1ccc(CN2C3CCCC2CC(NC(=O)Nc2cccc(F)c2)C3)cc1 (centres undefined),"inconclusive [cytotoxic, single point]",
CCC[C@H](N[C@@H](CCC)[C@H](O)c1ccccc1)[C@H](O)c1ccccc1,inactive,
CN1CCN(C(=O)COc2ccc(-c3nc4ccccc4s3)cc2)CC1,"inconclusive [cytotoxic, single point]",
O=C(c1ccc2c3c(cccc13)CC2)C1CCCN(CC2CC2)C1 (centres undefined),"inconclusive [cytotoxic, partial curve]",
O=C1NC(=O)C(=Cc2cccc(OCCOc3ccccc3)c2)C(=O)N1,inactive,
CCOP(=O)(OCC)C(NC(=O)Nc1ccc(Cl)c(Cl)c1)c1ccccc1 (centres undefined),"inconclusive [cytotoxic, single point]",
NC(=O)c1cn(C2OC(CO)C(O)C2O)c2ncnc(N)c12 (centres undefined),active: 58 nM and active: 326 nM,
CCC1(CCO)C(=O)NC(=S)NC1=O,inactive,
